{"source": "PubChem BioAssay AID995", "about": "(National Center for Advancing Translational Sciences (NCATS), 2007)", "note": "Where “and” joins values, the source holds several entries; their conditions need not be identical. Identical values can stand only once. Screen size: about 72,000 compounds; about 710 (0.99%) were called active. This list was built around the results that the source calls inconclusive (neither active nor inactive); the mix of calls is not that of the screen. The call rests on the fitted dose curve; in most records, active means well fitted inhibition curve with a large enough effect; inconclusive means small, poorly fitted or top-dose-only effect; inactive means no such curve, though single readings can be large or run the other way. Potencies beside an inconclusive call are fits to weak or partial responses and may not hold up. Some compounds were tested as several samples or in several runs, with calls that do not always agree. On the % scale 0 is the no-effect control and ±100 the full control effect; potency means the concentration at half of the fitted maximal effect; tags describe the fitted curve by direction and shape.", "data": [{"experiment": "qHTS Assay for Inhibitors of the ERK Signaling Pathway using a Homogeneous Screening Assay; further: nearly all actives have a fitted effect of over 55% in size", "conditions": "HEK293-V1b, vasopressin-stimulated pERK AlphaScreen; activity, negative = inhibition: at 57.5 µM (top of the series) unless noted", "procedure,_shortened": "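qHTS, compounds titrated on V1b-expressing HEK293 cells. Preincubation 30 min at 37C, vasopressin 25 nM for 5 min, lysis 10 min, bead incubation 5 hr at room temperature.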", "values": [{"smiles": "COc1ccc(C(=O)COC(=O)c2ccco2)cc1", "activity, negative = inhibition": "inactive: 1.91%"}, {"smiles": "CCCc1c(-c2ccc(O)cc2)nn(-c2ccc(O)cc2)c1-c1ccc(O)cc1", "activity, negative = inhibition": "inactive: -26.3%"}, {"smiles": "CCOc1ccc2[nH]c(=O)c(C(c3nnnn3C3CCCCC3)N3CCN(CC)CC3)cc2c1", "note": "(stereo not given)", "activity, negative = inhibition": "inactive: 24.3%"}, {"smiles": "COc1ccc2nc3c(c([Si](C)(C)C(C)(C)C)c2c1)Cn1c-3cccc1=O", "Potency": "inconclusive: 31.6 µM [inhibitor, single point]"}, {"smiles": "CCC(C)C(=O)Nc1nc2c(s1)C(=O)CC(C)(C)C2", "note": "(stereo not given)", "Potency": "inconclusive: 3.16 µM [inhibitor, single point]"}, {"smiles": "COc1ccccc1-c1c(C)nn2c(N3CCCCCC3)cc(C)nc12", "Potency": "inconclusive: 15.8 µM [inhibitor, partial curve, poor fit]"}, {"smiles": "COc1ccc(C)cc1-n1nnnc1SCc1cn2ccsc2n1", "Potency": "inconclusive: 15.8 µM [inhibitor, single point]"}, {"smiles": "COC(=O)CSc1nnc(C2COc3ccccc3O2)n1-c1ccccc1", "note": "(stereo not given)", "Potency": "inconclusive: 1 µM [inhibitor, full curve, poor fit]"}, {"smiles": "COc1ccc(NC(=O)/C=C\\c2ccc(Cl)cc2)cc1", "Potency": "inconclusive: 39.8 µM [inhibitor, single point]"}, {"smiles": "Cc1noc(C)c1COC(=O)c1cccc(S(=O)(=O)N2c3ccccc3CC2C)c1", "note": "(stereo not given)", "Potency": "inconclusive: 31.6 µM [inhibitor, single point]"}, {"smiles": "Cc1cc2oc(C(=O)Nc3c(C)n(C)n(-c4ccccc4)c3=O)c(C)c2cc1C", "Potency": "inconclusive: 39.8 µM [inhibitor, single point]"}, {"smiles": "CCCc1nc2oc3c(NCCOCCO)ncnc3c2c2c1COC(C)(C)C2", "Potency": "inconclusive: 20 µM [inhibitor, partial curve]"}, {"smiles": "O=C(CCc1ccc(O)cc1)c1c(O)cc(O)cc1O", "Potency": "inactive and inconclusive: 31.6 µM [inhibitor, single point]"}, {"smiles": "Cc1cccc(OCC(=O)Nc2cc(C)ccc2O)c1", "Potency": "inconclusive: 15.8 µM [inhibitor, partial curve, poor fit]"}, {"smiles": "COc1cccc(NC2SC(=O)N(c3ccccc3)C2=O)c1", "note": "(stereo not given)", "Potency": "inconclusive: 39.8 µM [inhibitor, single point]"}, {"smiles": "CN1C(=O)/C(=C2/C=Cc3ccccc3N2CCCS(=O)(=O)O)SC1=S", "Potency": "inconclusive: 31.6 µM [inhibitor, single point]"}, {"smiles": "O=c1cc(-c2ccc(O)cc2)oc2ccc(O)cc12", "activity, negative = inhibition": "inactive: -6.04%"}, {"smiles": "CCC(=O)N1CCc2cc(OC)c(OC)cc2C1COc1ccc(C(=O)OC)cc1", "note": "(stereo not given)", "Potency": "inconclusive: 15.8 µM [inhibitor, partial curve]"}, {"smiles": "CCOCc1cc(C2NC(=O)NC(C)=C2C(=O)OCC)ccc1OC", "note": "(stereo not given)", "Potency": "inconclusive: 39.8 µM [inhibitor, single point]"}, {"smiles": "CO[C@@H]1COC(=O)[C@H]2CCCN2C(=O)C/C=C\\[C@@H](C)[C@H](OC)COC(=O)[C@H]2CCCN2C(=O)C/C=C\\[C@H]1C", "activity, negative = inhibition": "inactive: 3.25% [at 11.5 µM]"}, {"smiles": "CCCCn1c(SCC(=O)OC)nc2c1c(=O)n(C)c(=O)n2C", "Potency": "active: 15.8 µM"}, {"smiles": "Cc1ccc2nc(NC(=O)c3cccs3)sc2c1", "activity, negative = inhibition": "inactive: -1.09%"}, {"smiles": "COc1ccc(CC(=O)Nc2cccc(-c3nnc(-c4ccccc4)o3)c2)cc1OC", "Potency": "active: 5.01 µM"}, {"smiles": "COc1ccc(-n2c(=O)c(-c3cc(F)cc(F)c3)nc3cncnc32)cc1", "activity, negative = inhibition": "inactive: -15.6%"}, {"smiles": "Cc1noc(C)c1-c1ccc2ncnc(NCc3ccccc3)c2c1", "Potency": "inconclusive: 31.6 µM [inhibitor, single point]"}, {"smiles": "O=C1c2ccccc2NC(c2ccccc2)N1Cc1ccco1", "note": "(stereo not given)", "Potency": "inconclusive: 39.8 µM [inhibitor, single point]"}, {"smiles": "Cn1c(=O)c(-c2cc(F)cc(F)c2)nc2cnc(Oc3ccccc3)nc21", "activity, negative = inhibition": "inactive: -29.1%"}, {"smiles": "CNC[C@H](O)c1ccc(O)c(O)c1", "Potency": "inconclusive: 3.98 µM [inhibitor, full curve, poor fit]"}, {"smiles": "Clc1cccc(-c2nnc(SCc3nc4ccccc4[nH]3)n2Cc2ccco2)c1", "Potency": "inconclusive: 39.8 µM [inhibitor, single point]"}, {"smiles": "Cc1cc(C)cc(N(CC(=O)Nc2cccc(C)n2)S(=O)(=O)c2c(C)noc2C)c1", "activity, negative = inhibition": "inactive: -4.67%"}, {"smiles": "CCCc1ccc(OCC(O)CN2CCN(c3ccccc3)CC2)cc1", "note": "(stereo not given)", "activity, negative = inhibition": "inactive: 11.5%"}, {"smiles": "C=C1C(=O)C=C2CN(C(=O)c3ccccc3)[C@@](Cc3ccc(OC)cc3)(C(=O)OC)[C@@H]12", "Potency": "inconclusive: 7.94 µM [inhibitor, full curve]"}, {"smiles": "CCOC(=O)N/C(N)=N/c1nc2ccccc2s1", "Potency": "inconclusive: 39.8 µM [inhibitor, partial curve]"}, {"smiles": "O=C(c1ccco1)N1CCN(C(=O)N2c3ccccc3Sc3ccccc32)CC1", "Potency": "inconclusive: 31.6 µM [inhibitor, single point]"}, {"smiles": "O=C(O)CCCC(=O)Nc1nc(-c2ccc(F)cc2)cs1", "Potency": "inconclusive: 15.8 µM [inhibitor, partial curve]"}, {"smiles": "CN1C(=O)NC(c2ccccc2)C2=C1CN(c1cccc(C(F)(F)F)c1)C2=O", "note": "(stereo not given)", "Potency": "inconclusive: 1 µM [inhibitor, single point]"}, {"smiles": "CCc1cc2c(nc1CC)CCN(CC/C(C)=N/OCC[C@@H]1C=C[C@H](OC(C)=O)[C@H](COC(C)=O)O1)C2", "activity, negative = inhibition": "inactive: 25.9% [at 11.5 µM]"}, {"smiles": "COc1ccc(NC(=O)Nc2ncn(Cc3cccc(C(F)(F)F)c3)n2)cc1OC", "Potency": "inconclusive: 15.8 µM [inhibitor, partial curve]"}, {"smiles": "c1ccc2c(-c3nc(-c4ccncc4)no3)cccc2c1", "Potency": "inconclusive: 10 µM [inhibitor, partial curve]"}, {"smiles": "COC(=O)Nc1nc2ccc(C(=O)c3cccs3)cc2[nH]1", "Potency": "inactive"}, {"smiles": "COc1ccc(OCc2nn3c(-c4cccc(OC)c4)nnc3s2)cc1", "Potency": "inconclusive: 12.6 µM [inhibitor, partial curve]"}, {"smiles": "Cn1c(=O)[nH]c(=O)c2c1nc1n2CCCS1", "Potency": "inconclusive: 12.6 µM [inhibitor, partial curve]"}, {"smiles": "Nc1ccn([C@H]2CC[C@@H](CO)O2)c(=O)n1", "Potency": "active: 25.1 µM"}, {"smiles": "Fc1cccc(Cl)c1Cn1nnc2c(NCc3ccccn3)ncnc21", "Potency": "inconclusive: 39.8 µM [inhibitor, single point]"}, {"smiles": "COc1ccc2cc(C(=O)NCc3ccco3)c(=Nc3ccc(C(=O)O)cc3)oc2c1", "activity, negative = inhibition": "inactive: 27.6%"}, {"smiles": "Cc1nc2cnc(OCc3ccccc3)nc2n(Cc2ccc(F)cc2)c1=O", "activity, negative = inhibition": "inactive: 14.3%"}, {"smiles": "COc1ccc(OC)c(-n2c(SCC(C)=O)nnc2-c2cccc(S(=O)(=O)N(C)C)c2)c1", "Potency": "inconclusive: 39.8 µM [inhibitor, single point]"}, {"smiles": "Cc1ccc(-c2nnc(SCC(=O)Nc3ccc4c(c3)OCCO4)n2N)cc1", "activity, negative = inhibition": "inactive: 4.38%"}, {"smiles": "CCc1cc2c(cc(C(=O)O)n2C)s1", "Potency": "inconclusive: 12.6 µM [inhibitor, partial curve]"}, {"smiles": "CCOC(=O)C1C(C)N=C2SCC(=O)N2C1c1cccc(Br)c1", "note": "(stereo not given)", "Potency": "inconclusive: 20 µM [inhibitor, partial curve]"}, {"smiles": "Nn1c(SCC(=O)Nc2ccccc2F)nc2ccccc2c1=O", "Potency": "inconclusive: 12.6 µM [inhibitor, partial curve]"}, {"smiles": "CCn1nc(C(=O)OC2CCOC2=O)c2ccccc2c1=O", "note": "(stereo not given)", "Potency": "inconclusive: 0.398 µM [inhibitor, partial curve]"}, {"smiles": "COc1ccccc1OCC(=O)Nc1cccc(C(=O)N2CCOCC2)c1", "Potency": "inconclusive: 39.8 µM [inhibitor, single point]"}, {"smiles": "CC(=O)c1cccc(OCC(=O)c2cc(C)n(-c3cc(C)on3)c2C)c1", "Potency": "inconclusive: 31.6 µM [inhibitor, single point]"}, {"smiles": "O=C(Nc1ccc2nn(-c3ccccc3)nc2c1)c1cccnc1", "Potency": "inconclusive: 15.8 µM [inhibitor, partial curve]"}, {"smiles": "c1ccc2[nH]c(-c3ccnc4ccccc34)nc2c1", "Potency": "inconclusive: 39.8 µM [inhibitor, single point]"}, {"smiles": "Cc1cc(-c2ccco2)n2c(nc3ccccc32)c1C#N", "Potency": "inconclusive: 12.6 µM [inhibitor, partial curve, poor fit]"}, {"smiles": "Cn1c(N)c(C(=O)COC(=O)c2cc(-c3ccccc3)nc3ccccc23)c(=O)n(C)c1=O", "Potency": "inconclusive: 10 µM [inhibitor, partial curve]"}, {"smiles": "O=C1CC(c2cccs2)c2cc3c(cc2N1)OCCO3", "note": "(stereo not given)", "Potency": "inconclusive: 20 µM [inhibitor, single point]"}, {"smiles": "N[C@@](C(=O)O)(c1ccc(P(=O)(O)O)cc1)C1CC1", "activity, negative = inhibition": "inactive: 2.4%"}, {"smiles": "CCCCOc1ccc(NC(=O)C2CC=CCC2C(=O)O)cc1", "note": "(stereo not given)", "Potency": "inconclusive: 25.1 µM [inhibitor, partial curve]"}, {"smiles": "CCCCCOc1ccc(C(=O)N(Cc2ccco2)C2CCS(=O)(=O)C2)cc1", "note": "(stereo not given)", "activity, negative = inhibition": "inactive: -12.5%"}, {"smiles": "COc1ccc(Nc2nc(N)nc(CN3CCN(c4ccccn4)CC3)n2)cc1", "Potency": "inconclusive: 25.1 µM [inhibitor, partial curve]"}, {"smiles": "CCOc1ccc(-c2cc(NC(=O)Cn3ncc4c3-c3ccccc3OC4)on2)cc1OCC", "Potency": "inconclusive: 7.94 µM [inhibitor, partial curve]"}, {"smiles": "O=C(Oc1ccccc1)N1CCC2(CC1)CN(c1ncccn1)C2", "activity, negative = inhibition": "inactive: 8.59%"}, {"smiles": "Oc1c(I)cc(Cl)c2cccnc12", "Potency": "active: 12.6 µM"}, {"smiles": "Cc1cccc2cc(C(c3nnnn3Cc3ccccc3)N3CCN(c4ccccc4)CC3)c(=O)[nH]c12", "note": "(stereo not given)", "Potency": "inconclusive: 0.0316 µM [inhibitor, full curve, poor fit]"}, {"smiles": "CCSc1nc2ccccc2n1Cc1nc(N)nc(N(C)C)n1", "Potency": "inconclusive: 1 µM [inhibitor, full curve, poor fit]"}, {"smiles": "COC(=O)c1nnn(-c2nonc2N)c1CN1CCc2ccccc21", "activity, negative = inhibition": "inactive: -8.58%"}, {"smiles": "COc1ccc(C(=O)CSc2nnc(-c3ccco3)n2CC2CCCO2)cc1", "note": "(stereo not given)", "Potency": "inconclusive: 3.16 µM [inhibitor, partial curve]"}]}]}
